From PubChem BioAssay AID1508623 (National Center for Advancing Translational Sciences (NCATS), 2021)
About 450 (0.94%) of roughly 48,000 compounds were called active. Not shown: some 19% with an inconclusive outcome. Calls follow the shape of the dose curve; as a rule, active = well fitted inhibition curve with a large enough effect; inconclusive = small, poorly fitted or top-dose-only effect; inactive = no such curve, though single readings can be large or run the other way. Some of the results follow.

Assay: Primary qHTS for Identification of Small Molecule Inhibitors of Huntingtin Promoter Activity; also: nearly all actives have a fitted effect of over 50% in size
Details: HEK293 HTT promoter firefly luciferase reporter (activity 0% = vehicle and -100% = no light), 24 h; series mostly up to 57.5 µM; activity change, negative = inhibition: at the top concentration
How it was run: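 Luminescence was read after Dual-Glo reagent and a 10 min room-temperature incubation. Values were normalized to vehicle (0% activity) and zero RLU (-100% activity). Reporter HEK293 cells had been exposed to compounds (up to 57.5 uM final) for 24 h.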

Activity change, negative = inhibition, inactive:
COc1ccc(-c2nn(-c3ccc(C)cc3)c3c2cnc2ccc(C)cc23)cc1OC -7.28%
CCCN1CCN(CCCNC(=O)C(CC)n2nc(C)n3c(cc4occc43)c2=O)CC1 (centres undefined) -14.4%
O=C(NCC(c1cccnc1)N1CCN(Cc2ccccc2)CC1)C(=O)Nc1cccc(Cl)c1 (centres undefined) -20.5%
O=C(O)c1cccc(-n2cnc3cccnc32)c1 -18.1%
CCN(CC)CCNC(=O)c1cn(CC)c2ccc(S(=O)(=O)N(C)C3CCCCC3)cc2c1=O -7.63%
CCC(C(=O)NC1CCCCC1)n1c(SCc2cccc(C)c2)nc2ccncc21 (centres undefined) -18.4%
Cn1c(C(=O)N2CCC(C(=O)NCCc3ccccc3)CC2)cc2sccc21 -1.48%
N#Cc1ccccc1CSc1nnc2ccc3ccccc3n12 9.85%
COCc1c(Br)c(C)nc2sc3c(=O)n(-c4cccc(Br)c4)nnc3c12 -11.2%
COc1cc(C(=O)NCCCCCC(=O)O)cc(OC)c1OC 6.14%
CC(NC(=O)c1ccco1)c1nc(-c2ccccc2)no1 (centres undefined) -10.3%
Cc1cc(=O)n(CC(=O)NC(C)c2ccccc2)c2c1c(C)nn2-c1cccc(F)c1 (centres undefined) -9.41%
Nc1ccc([N+](=O)[O-])cc1O -18.5% [at 116 µM]
CCN1C(=O)c2ccccc2S(=O)(=O)c2ccc(C(=O)NCc3ccc(OC)cc3)cc21 -12.8%
CCc1ccccc1NC(=O)CSc1nnc(-c2ccccc2)c(-c2ccccc2)n1 -26.2%
COCCNC(=O)Cn1c(=O)c2cccn2c2ccc(F)cc21 7.36%
CCc1nnc(NC(=O)c2nc(SC)ncc2Cl)s1 -4.33%
NC(=O)CSc1nc2c(oc3ccccc32)c(=O)n1Cc1ccccc1 -7.17%
Cc1ccccc1C(=O)Nc1c(C(=O)Nc2cccc(F)c2)oc2ccccc12 -18.3%
O=C(NCc1ccc2c(c1)OCO2)c1ccc2c(c1)N(Cc1ccccc1F)C(=O)c1ccccc1S2=O (centres undefined) -12.9%
C[C@@H]1CCC[C@H](C)N1CCCC(O)(c1ccccc1)c1ccccn1 (some centres undefined) -2.65%
CCCN(C(=O)c1c(C)oc2ncnc(N3CCOCC3)c12)c1ccc(Cl)c(Cl)c1 -10.2%
Cc1cccn2c3c(c(=O)nc12)C(c1ccc(F)cc1)CC(=O)N3 (centres undefined) -15.3%
O=S(=O)(NCC(c1ccco1)N1CCN(c2ccccc2)CC1)c1ccccc1 (centres undefined) -13.3%
CCOc1ccc(Cn2nnc(C(=O)Nc3ccc(Cl)cc3)c2N)cc1 0.761%
COc1ccccc1CNC(=O)C1CCN(C(=O)c2sccc2-n2cccc2)CC1 -28.1%
CN(C1CCCCC1)S(=O)(=O)c1ccc2c(c1)c(=O)c(C(=O)NCc1ccc(F)cc1)cn2C -7.31%
CCn1ccc2c(OCC(=O)Nc3ccc(C(C)=O)cc3)cccc2c1=O -20.6%
O=c1c(=O)n(-c2ccccc2)ccn1Cc1c(F)cccc1Cl -15.6%
CCOc1cccc(NC(=O)c2sc3nc(-c4ccc(F)cc4)ccc3c2N)c1 -0.275%
COc1cc(CNCCSc2nnnn2C)ccc1OCc1ccc(C)cc1 26.2%
O=C(COCc1cc(-c2cccs2)on1)N1CCN(c2ccc(F)cc2)CC1 -27.6%
Cc1nc2cccnc2n1C1CCN(C(=O)Nc2ccccc2)CC1 -17%
Cc1cc(C)cc(N2CC(c3nnc(NC(=O)c4ccco4)s3)CC2=O)c1 (centres undefined) -21.4%
COc1cc(C(=O)Nc2ccc(-n3c(C)nc4ccccc4c3=O)cc2)cc(OC)c1OC 0%
O=c1c2oc3ccccc3c2n(Cc2ccc(F)cc2)c(=O)n1Cc1ccco1 -9.06%
CCCCn1c(=NC(=O)c2c(-c3c(F)cccc3Cl)noc2C)c(C(=O)OCC)cc2c(=O)n3ccccc3nc21 -9.29%
Cc1ccc(-c2noc(-c3ccc(NCc4cccnc4)c([N+](=O)[O-])c3)n2)cc1 5.16%
CCOC(=O)C1CCN(C(c2ccc(OCC)cc2)c2c(O)cc(C)n(CCOC)c2=O)CC1 (centres undefined) -13%
COc1ccc(CNS(=O)(=O)c2cc(Br)cc3c2N(C(C)=O)C(C)C3)cc1 (centres undefined) -19.4%
O=C(NCc1cccc(F)c1)c1ccc(CN2CC(=O)N3CCCCC3C2=O)cc1 (centres undefined) -19.5%
CCCCc1ccc(-n2nc3cc(Cl)c(NC(=O)c4ccc(OC)cc4)cc3n2)cc1 15.7%
CCOC(=O)c1ccc2nc(C)cc(Nc3ccc(OC(C)C)cc3)c2c1 -28.8%
Cc1cccc(C(=O)NCCc2nc3ccccc3n2Cc2ccc(Cl)cc2)c1 -11.9%
Cc1ccc(OC(C)C(=O)N2CCN(CCc3ccncc3)CC2)cc1C (centres undefined) -32.9%
Cc1ccc(NC(=O)c2ccc(Cl)cc2Cl)c(C(=O)c2ccccc2)c1 -20.6%
O=S(=O)(NCc1ccc(Cl)cc1)c1ccc2[nH]c3c(c2c1)CCCC3 -6.73%
CCOc1ccc(-c2cc3c(=O)n(Cc4nc(-c5ccccc5OCC)oc4C)ccn3n2)cc1Cl -7%
Cc1ccc(Cn2c(C)c(CNCC(C)c3ccccc3)c(C(=O)O)c2C)cc1 (centres undefined) -25.8%
CCC(CC)C(=O)Nc1ccccc1SCc1cc(=O)c2cccc(C)c2[nH]1 0.0389%
COCCCNC(=O)C1CCC(Cn2c(=O)c3sccc3n(C)c2=O)CC1 (centres undefined) -1.45%
Cc1ccc(NC(=O)CN2CCN(c3ccccc3F)CC2)cc1F -2.78%
CCOC(=O)C1CCN(c2nc3c(S(=O)(=O)c4ccccc4)nnn3c3ccc(Cl)cc23)CC1 12.1%
COc1ccc(C(=O)c2sc3nc(-c4ccc(C)cc4)cc(C(F)(F)F)c3c2N)cc1 -13.1%
COc1cc(OC)cc(C(=O)Nc2ccc(-c3nc4cc(C(C)C)ccc4o3)cc2)c1 -25.3%
Cc1ccc(C)c(N2CCN(S(=O)(=O)c3ccc(-c4coc(C)n4)cc3)CC2)c1 -28.9%
CCCCN(CCCNC(=O)c1cc(Nc2ccc(OC)cc2)nc2ccccc12)Cc1ccccc1 0%
COc1cc2c3cc1Oc1cc(ccc1O)C[C@@H]1c4c(cc(OC)c(O)c4Oc4ccc(cc4)C[C@@H]3N(C)CC2)CC[N+]1(C)C 9.46%
Cc1cccc(N2CCN(C(=O)Cn3ncc4c5ccccc5n(C)c4c3=O)CC2C)c1 (centres undefined) 5%
O=c1c(S(=O)(=O)c2ccccc2)cn(Cc2ccc(F)cc2)c2cc(N3CCOCC3)c(F)cc12 -10.5%
CC(=O)C1=C(c2ccc(Cl)c(Cl)c2)N(C(C)=O)n2c(nnc2-c2ccccc2)S1 -8.86%
O=C(COCc1cc(-c2ccc(F)cc2)on1)Nc1cc(Cl)ccc1O -12.8%
COc1ccc(CCNC(=O)CCCn2c(=O)c3ccccc3n(Cc3ccccc3C#N)c2=O)cc1OC -4.18%
Nc1nonc1C(=O)NCCNCc1ccccc1F -5.76%
COc1cccc(C2C=C(c3ccccc3)Nc3c(C(=O)Nc4ccccc4)cnn32)c1OC (centres undefined) -9.44%
COc1cc(C(CC(=O)Nc2cccc(C(C)=O)c2)N2Cc3ccccc3C2=O)cc(OC)c1OC (centres undefined) -6.8%
CC(=O)Nc1nonc1-c1nnc(SCC(=O)Nc2cc(Cl)ccc2C)n1C -17.6%
CC1(C)[C@H](C(=O)O)N2C(=O)C[C@H]2S1(=O)=O
CCOC(=O)c1c(NC(=O)/C=C/c2ccc(C)cc2)sc(C(C)=O)c1C -0.802%
Cc1cccc(C(=O)Nc2sc3c(c2C(=O)NC(C)C)CCCC3)c1 -20.9%
CCOC(=O)c1cc(S(=O)(=O)NCc2cccc(Cl)c2)[nH]n1 11.1%
CCOC(=O)c1cnc2cc(F)c(F)cc2c1Nc1ccccc1O -3.9%
CC(C)(C)OC(=O)N1CCC(c2c(C(=O)N3CCCCC3)cnn2-c2cccc(F)c2)CC1 -11.3%
Nc1nnnn1-c1ccccc1 -2.51%
CC(=O)c1ccc(N2CCN(C(=O)CCc3nnc4n(C)c(=O)c5sccc5n34)CC2)cc1 -19.4%
COc1cc(OC)c(NC(=O)c2noc3c2CSc2ccccc2-3)cc1Cl -15.8%
CCCCn1c(SCC(=O)Nc2ccc(OCC)cc2)nc2ccsc2c1=O 2.92%
Cc1ccc(CNC(=O)CSc2ncc3c(n2)-c2ccc(Cl)cc2N(Cc2ccccc2)S3(=O)=O)cc1 -2.28%
Cc1ccc(NS(=O)(=O)c2cc3[nH]c(=O)c(=O)[nH]c3cc2C)cc1N(C)C 9.27%
CCc1ccccc1NC(=O)[C@@H](c1ccccc1)N1Cc2ccccc2C1=O -16.8%
Cc1ccc(NC(=O)CCCn2c(=O)c3cccn3c3cccnc32)cc1C 3.01%
Cc1ncc(CO)c(CO)c1O 6.75%
CC(C)CC(=O)Nc1ccccc1OCc1cc(=O)n2ccccc2n1 -2.78%
O=C(Nc1ccc(Br)cc1F)N1CCC(CN2CCc3ccccc3C2)CC1 -24.9%
COc1ccc(C(=O)COC(=O)CCCC(=O)Nc2cc(C(F)(F)F)ccc2Cl)cc1 0.104%
COc1ccc(OCC(=O)OCc2cc(=O)n3nc(C4CC4)sc3n2)cc1 -26.7%
CCCCOC(=O)c1ccc(NC(=O)c2cc(-c3cccs3)on2)cc1 -7.06%
Cc1ccc(Nc2c(-c3ccc(C)s3)nc3ncccn23)cc1 60.4%
CCOC(=O)c1c(NC(=O)/C=C/c2ccc(C)cc2)sc2c1CCCC2 -3.35%
Cc1ccc(CNC(=O)CCCc2nnc3n(C)c(=O)c4sccc4n23)cc1 1.5%
O=C(NCCc1ccc(Cl)cc1)c1cc(-c2ccc(Cl)cc2)n[nH]1 -2.11%
Cc1ccc(NC(=O)C(=O)NCC(c2ccc3c(c2)OCO3)N2CCOCC2)cc1C (centres undefined) -12.6%
CCC(C)NC(=O)c1ccc2nc(CCc3ccccc3)oc2c1 (centres undefined) 26.8%
CCOc1ccc(NC(=O)CCCc2nnc3n(C)c(=O)c4sccc4n23)cc1 -13.1%
O=C(NCc1ccccc1F)C(=O)NCC(c1ccco1)S(=O)(=O)c1cccs1 (centres undefined) -14.9%
CC1=C(C(=O)Nc2ccccc2)C(c2cccc(Cl)c2)n2nc(SCC(=O)c3ccc(C)cc3)nc2N1 (centres undefined) -11.8%
Cc1cccc(OCC(=O)Nc2ccccc2C(=O)OCc2cc(=O)n3nc(C)sc3n2)c1 -11.1%
O=C(Nc1ccc2oc(-c3ccc4ccccc4c3)nc2c1)c1ccc(Cl)c(Cl)c1 1.13%
COc1ccc(OC)c(NC(=O)c2cn(CC(C)C)c(=O)c3cc(OC)c(OC)cc23)c1 -0.631%
